Reference: the RNAGym collection of RNA variant scans (doi:10.1073/pnas.2313332121)
Variants at the background level are over-represented here.

B1: TPR 5TU (parent)
chain: GGAUCUUCUCGAUCUAACAAAAAAGACAAAUCUGCCACAAAGCUUGAGAGCAUCUUCGGAUGCAGAGGCGGCAGCCUUCGGUGGCGCGAUAGCGCCAACGUUCUCAACUAUGACACGCAAAACGCGUGCUCCGUUGAAUGGAGUUUAUCAUG

Variants of: B1
Assay: polymerase ribozyme fitness, log enrichment relative to wild type (log ratio); higher = more active; in vitro selection for triplet polymerase activity
Summary of the method: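 In triplicate, a single round of in vitro selection was run on each mutant library, PCR-built and transcribed, covering one subunit of a heterodimeric triplet polymerase ribozyme. Frozen incubation at −7 °C followed annealing with a biotinylated primer, partner subunit and triplets, and extended constructs were then gel-excised, streptavidin-captured and taken through RT-PCR. Fitness is the logarithm of genotype enrichment over wild-type enrichment, from inverse-variance-weighted replicate averages of Illumina-sequenced inputs and outputs. […] only genotypes with ≥10 input reads and ≥1 read per output were kept.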

Which “polymerase ribozyme fitness (log ratio)” value does the source give for GGAUCUUCUCGAUCUAACAAAAAAGACAAAUCUGCCACAAAGCUUGAGGGCAUCUUCGGAUGCAGAGGCGGCAGCCUUAGGUGGCGCGAUAGCGCCAACGUUCUCAACUAUGACACGCAAAACGCGUGCUCCGUUGAAUGGAGUUUAUCAUG [A49G C79A] here?
The value was at most -4.2.

For GGAUCUUCUCGAUCUAACAAAAAAGACAAAUCUGCCACAAAGCUUGAGGGCAUAUUCGGAUGCAGAGGCGGCAGGCUUCGGUGGCGCGAUUGCGCCAACGUUCUCAACUAUGACACGCAAAACGCGUGCUCCGUCGAAUGGAGUUUAACAUG [A49G C54A C75G A91U U135C U148A], which “polymerase ribozyme fitness (log ratio)” value is on record?
Its value is at most -4.2.

With GGAUCUUCUCGAUCUAACAAAAAAGACAAAUCUGCCACAAAGCUUGAGCGCAUCUUCGGAUGCAGAGGCGGCAGCCUUCGGUGUCGCGAUAGCGCCAACGUUCUCAACUAUGACACGCAAAACGUGUGCUCCGUUGGAUGGAGUUUAUCAUG [A49C G84U C125U A137G] as the variant, how does the “polymerase ribozyme fitness (log ratio)” value read?
Its value is at most -4.2.

For GGAUCUUCUCGAUCUAACAAAAAAGACAAAUCUGCCACAAAGCUUGAGGGCAUCUUCGGAUGCAGAGGCGGCAGCCUUCGGUGGGGCGAUCGCGCCAACGUUCUCAACUAUGACACGCAAAACGCGUGUUCCGUUGAAUGGAGUUUAUCAUG [A49G C85G A91C C129U], which “polymerase ribozyme fitness (log ratio)” value is on record?
Its value is at most -4.2.

For GGAUCUUCUCGAUCUAACAAAAAAGACAAAUCUGCCACAAAGCUUGAGGGCAACUUCGGAUGCAGAGGCGGCAGCCUUCGGUGGCGAGAUGGCGCCAACGUUCUCAACUAUGACACGCAAAACGCGUGCUCCGAUGAAUGGAGUUUCUCAUG [A49G U53A C87A A91G U134A A147C], which “polymerase ribozyme fitness (log ratio)” value is on record?
The value was at most -4.2.

Which “polymerase ribozyme fitness (log ratio)” value does the source give for GGAUCUUCUCGAUCUAACAAAAAAGACAAAUCUGCCACAAAGCUUGAGCGCAUCUUCGGAUGCAGAGGCGGCAGCCUUCGGUGGCUCGAUAGCGCCAACUUUCUCAACUAUGACACGCCAAACGCGUGCGCCGUUGAAUUGAGUUUAUCAUG [A49C G86U G100U A119C U130G G140U] here?
The value was at most -4.2.

Which “polymerase ribozyme fitness (log ratio)” value does the source give for GGAUCUUCUCGAUCUAACAAAAAAGACAAAUCUGCCACAAAGCUUGAGGGCAUCUUCGGAUGCAGUGGCGGCAGCCUUCGGUGGCGCGAUAGCGCAAACGGUCUCAACUAUGACACGCAAAACGCGUGCUCCGUUGAAUGGAGUUUACUAUG [A49G A66U C96A U101G U148C C149U] here?
Its value is at most -4.2.

Which “polymerase ribozyme fitness (log ratio)” value does the source give for GGAUCUUCUCGAUCUAACAAAAAAGACAAAUCUGCCACAAAGCUUGAGCGCAUCUUCGGAUGCAGAGGCGGCAGCCUUCGGUGGCGCGAUAUCGCCAACGUUCUCAACUAUGACACGCAAAACGCGUGCUCCGUUGAAUGGAGUUUAUCAUG [A49C G92U] here?
The value was at most -4.2.

For GGAUCUUCUCGAUCUAACAAAAAAGACAAAUCUGCCACAAAGCUUGAGGGCUUCUUCGGAUGCAAAGGCGGCAGCCUUGGGUGGCGCGAUAGUGCCAACGUUCUCAACUAUGACACGCAAAACGCGUGCUCCGUUAAAUGGAGUUUAUCAUG [A49G A52U G65A C79G C93U G136A], which “polymerase ribozyme fitness (log ratio)” value is on record?
Its value is at most -4.2.

Which “polymerase ribozyme fitness (log ratio)” value does the source give for GGAUCUUCUCGAUCUAACAAAAAAGACAAAUCUGCCACAAAGCUUGAGCGCAUCUUCGGACGCAGAGGCGGCAGCCUUCGGUGGCGCGAUAGCGCCAACGUUCUCAACUAUGACACGCAAAACGCGUGCACCGUUGAAUGGAGUUUAUCAUG [A49C U61C U130A] here?
Its value is at most -4.2.

For GGAUCUUCUCGAUCUAACAAAAAAGACAAAUCUGCCACAAAGCUUGAGUGCAUCUUCGGGAGCAGAGGAGGCAGUCUUCGGUGGCGCGAUAGCGCGAACGUUCUCAACUAUGACACGCAAAACGCGUGCUCCGUUGAAUGGAGUUUAUCAUG [A49U A60G U61A C69A C75U C96G], which “polymerase ribozyme fitness (log ratio)” value is on record?
The value was at most -4.2.

Which “polymerase ribozyme fitness (log ratio)” value does the source give for GGAUCUUCUCGAUCUAACAAAAAAGACAAAUCUGCCACAAAGCUUGAGUGCAUCUUCGGAUGCAGAGGCGGCAGCCUUUGGUGGCGCGAUAGCGCCAACGUUCUCAACUAUGACACGCAAAACGCGUGCUCCGUUGAAUGGAGUUUAUCAUG [A49U C79U] here?
The value was at most -4.2.

With GGAUCUUCUCGAUCUAACAAAAAAGACAAAUCUGCCACAAAGCUUGAGUGCAUCUUCGGAUGCAGAGGCGGCAGCCUUCGGUGGCGUGAUAGCGCCAACGUUCUCAACUAUGACACGCAAAACGCGUGCACCGUUGAAUGGAGUUUAUCAUG [A49U C87U U130A] as the variant, how does the “polymerase ribozyme fitness (log ratio)” value read?
Its value is at most -4.2.

Which “polymerase ribozyme fitness (log ratio)” value does the source give for GGAUCUUCUCGAUCUAACAAAAAAGACAAAUCUGCCACAAAGCUUGAGGACAUCUUCGGUUGCAGAGGCGGCAGCCUUCGGUGGCGCGAUAUCGCCAACGUUCUAAACUAUGACACGCAAAACGCGUGCUCCGUUGAAUGGAGUUCAUCAUG [A49G G50A A60U G92U C105A U146C] here?
The value was at most -4.2.

For GGAUCUUCUCGAUCUAACAAAAAAGACAAAUCUGCCACAAAGCUUGAGCGCAGCUAAGGAUGCAGAGGCGGCAGCUUUCGGUGGCGCGAUAACGCCACCGGUCUCAACUAUGACACGCAAAACGCGUGCUCCGUUGAAUGGAGUUUAUCAUG [A49C U53G U56A C57A C76U G92A A98C U101G], which “polymerase ribozyme fitness (log ratio)” value is on record?
Its value is at most -4.2.

Which “polymerase ribozyme fitness (log ratio)” value does the source give for GGAUCUUCUCGAUCUAACAAAAAAGACAAAUCUGCCACAAAGCUUGAGUGCAUCUUCGGAUACAGCAGCGGGAGCCUUCGGUGGCGCGAUAGCGCCAACGUUCUCAACUAUGACACGCAAAACGCGUGCUCCGUUGAAUGGAGUUUAUCAUG [A49U G62A A66C G67A C72G] here?
The value was at most -4.2.

For GGAUCUUCUCGAUCUAACAAAAAAGACAAAUCUGCCACAAAGCUUGAGGGCAUCUUUGGAUGCAGAGGCGGCAGCCUCCGGUGGCGCGAUAGGGCCAACGUUCUCAACUAUGACACGCAAAACGCGUGCUCCGUUGAAUGGAGUUUAUCAUG [A49G C57U U78C C93G], which “polymerase ribozyme fitness (log ratio)” value is on record?
Its value is at most -4.2.

With GGAUCUUCUCGAUCUAACAAAAAAGACAAAUCUGCCACAAAGCUUGAGUGCAUCUUCGGAUGCAGAGGCGGCGGCCUGCGGUGGCGCGAUGGAGCCAACGUUCUGAACUAUGACACGCAAAACGCGGGCUCCGUUGAAUGGAGUUUAUCAUG [A49U A73G U78G A91G C93A C105G U127G] as the variant, how does the “polymerase ribozyme fitness (log ratio)” value read?
Its value is at most -4.2.

For GGAUCUUCUCGAUCUAACAAAAAAGACAAAUCUGCCACAAAGCUUGAGCGCAUCAUGGGAUGCUGAGGCGGUAGCCUUCGGGGGCGCGAUAGCGCCAACGUUCUCAACUAUGACAUGCAAAACGCGUGCUCCGUUGAAUGGAGUUUAUCAUG [A49C U55A C57G A64U C72U U82G C116U], which “polymerase ribozyme fitness (log ratio)” value is on record?
Its value is at most -4.2.
